# Experimental data: PMC4336329 (PLoS ONE, 2015)
# In all, about 310,000 compounds went through this assay and about 14,000 (4.5%) showed an effect of 50% or more. Effects have a minus sign here. This is one part of the list.
# Molecular target: human ether-à-go-go-related gene (hERG) potassium channel (human, UniProt Q12809)
# Experiment: primary screen, population patch clamp on CHO cells stably expressing hERG
# 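Further: peak tail current of the secondary pulse compared with the same well before compound.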
# human ether-à-go-go-related gene (hERG) potassium channel, sequence (Q12809 whole entry, looked up): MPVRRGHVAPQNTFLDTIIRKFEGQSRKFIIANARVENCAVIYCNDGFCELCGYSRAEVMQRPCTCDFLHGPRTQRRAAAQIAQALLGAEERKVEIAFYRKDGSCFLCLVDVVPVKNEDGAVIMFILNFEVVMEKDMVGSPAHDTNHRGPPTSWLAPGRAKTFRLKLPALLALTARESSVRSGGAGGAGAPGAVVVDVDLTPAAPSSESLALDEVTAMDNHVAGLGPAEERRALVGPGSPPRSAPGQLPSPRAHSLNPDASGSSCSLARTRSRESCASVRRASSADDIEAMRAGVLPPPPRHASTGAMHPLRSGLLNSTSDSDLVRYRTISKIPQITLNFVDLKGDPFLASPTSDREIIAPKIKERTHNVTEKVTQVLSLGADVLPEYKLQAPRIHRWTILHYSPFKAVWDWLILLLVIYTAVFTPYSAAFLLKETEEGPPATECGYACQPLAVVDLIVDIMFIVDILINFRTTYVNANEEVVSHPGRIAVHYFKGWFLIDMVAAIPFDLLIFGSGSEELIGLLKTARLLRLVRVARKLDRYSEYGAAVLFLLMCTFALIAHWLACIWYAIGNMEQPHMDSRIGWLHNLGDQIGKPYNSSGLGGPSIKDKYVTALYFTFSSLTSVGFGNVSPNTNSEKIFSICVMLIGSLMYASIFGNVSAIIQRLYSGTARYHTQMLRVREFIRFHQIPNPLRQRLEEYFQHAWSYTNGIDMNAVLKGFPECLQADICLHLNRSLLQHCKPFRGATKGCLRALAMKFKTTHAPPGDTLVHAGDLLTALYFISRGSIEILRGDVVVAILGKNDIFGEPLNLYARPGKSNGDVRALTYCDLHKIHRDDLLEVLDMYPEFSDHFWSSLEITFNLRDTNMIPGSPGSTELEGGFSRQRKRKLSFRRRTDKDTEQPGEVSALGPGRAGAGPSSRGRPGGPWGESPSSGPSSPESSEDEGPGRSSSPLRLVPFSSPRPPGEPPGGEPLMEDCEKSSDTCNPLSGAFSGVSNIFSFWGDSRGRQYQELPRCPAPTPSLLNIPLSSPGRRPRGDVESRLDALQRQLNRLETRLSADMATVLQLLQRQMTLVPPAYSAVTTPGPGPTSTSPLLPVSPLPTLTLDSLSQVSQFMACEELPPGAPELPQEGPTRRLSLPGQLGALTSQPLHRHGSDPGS
row,Structure (SMILES),"hERG current change (%, negative = inhibition) at 10uM [%]"
1,CCCN1C(=O)c2ccc(C(=O)NC3=NCCS3)cc2C1=O,10
2,CCOc1ccccc1NC(=O)Nc1cc(S(=O)(=O)N(C)C)ccc1C,15
3,Cn1c(CN2CCOCC2)nc2cc(NC(=O)COc3ccc([N+](=O)[O-])cc3)ccc21,-33.3
4,CC(=O)c1c(C)n([O-])c2cc(C)ccc2[n+]1=O,-5.26
5,Cn1c(=O)n(C)c(=O)n(CC(=O)N2CCCCC2)c1=O,-8.38
6,CCc1ccc(CN2CCCC(CNS(=O)(=O)c3ccc(OC)cc3)C2)cc1 (centres unmarked),-69.8
7,COc1ccc(CC2S/C(=N/N=C/c3ccccc3O)NC2=O)cc1 (centres unmarked),17.2
8,O=C(O)c1ccccc1CSc1nnnn1-c1ccccc1,12.6
9,CCOC(=O)c1c(NC(=O)CC)sc(C(=O)NC2CCCC2)c1C,-15.6
10,CN(c1ccccc1)c1nc(N)c([N+](=O)[O-])c(Nc2cccc(F)c2)n1,24
11,Nc1nc(-c2ccco2)nn1S(=O)(=O)c1ccc(Cl)cc1,16.6
12,Cc1ccc(/C=N/NC(=O)CC2N=C(Cc3ccccc3)NNC2=O)cc1 (centres unmarked),16.6
13,CN(C)C(=O)Oc1ccc(-c2cn3cc(C(F)(F)F)ccc3n2)cc1,-3.56
14,CCN1CSC(=S)N(Cc2ccc(OC)cc2)C1,7.59
15,CN(CC1CCCN(CCc2ccc(Cl)cc2)C1)C(=O)CC(F)(F)F (centres unmarked),-60.5
16,CN(C)S(=O)(=O)c1cccc(NC(=O)c2cnccn2)c1,-11.2
17,Cc1nc(N2CCN(S(=O)(=O)c3cccc4nonc34)CC2)c2c3c(sc2n1)CCCC3,-1.38
18,Cc1ccc(NC(=O)CN2C(=O)NC(C)(C3CC3)C2=O)c(C)c1 (centres unmarked),14.1
19,CC(=O)c1ccc(NC(=S)NNC(=O)c2ccccc2[N+](=O)[O-])cc1,20
20,Cc1nc2cc(NC(=O)N3CCC(c4ccccc4)C3)ccc2n1C (centres unmarked),-52.4
21,Cc1ccc(C(=O)NCCOc2cccc(C)c2)cc1,5.16
22,CCc1ccc(N=c2c([N+](=O)[O-])nn(-c3ccc4c(c3)OCCO4)n2O)cc1,1.57
23,Cc1ncc(CN2CCC(CO)(Cc3ccccc3)CC2)s1,-7

row,Structure (SMILES),"hERG current change (%, negative = inhibition) at 10uM [%]"
1,COc1ccc(NS(=O)(=O)c2ccc3nc(COc4ccc(C#N)cc4)[nH]c3c2)cc1,-1.6
2,O=C(COC(=O)CCSc1ccc(Cl)cc1)NCc1ccc(Cl)cc1,13.6
3,CCOC(=O)c1c(NC(=O)CSc2nnc(CNc3ccc(F)cc3)o2)sc(C)c1C,3.55
4,CC1(C)Cc2cccc(OCC(=O)Nc3nccs3)c2O1,1.64
5,COCCn1c(SCC(=O)N(C)c2ccccc2)nc2c([nH]c3ccccc32)c1=O,9.36
6,O=[N+]([O-])c1cccc(S(=O)(=O)NCC2CCCO2)c1 (centres unmarked),14.9
7,O=C(N[C@@H](Cc1ccccc1)C(=O)NCCc1c[nH]c2ccccc12)c1ccco1,-12.3
8,S=c1[nH]nc(COc2cccc3ccccc23)n1Cc1ccccc1,13.8
9,CCOc1cc(N2CCOCC2)c(OCC)cc1NC(=O)c1ccc2ccccc2n1,14.1
10,CCOCCn1c(CCCO)nc2ccccc21,7.11
11,COc1ccc(CNC(=O)CN(C(=O)CCC(=O)Nc2ccccn2)c2cccc(C)c2C)cc1,9.38
12,Cc1nn(CC2CC2)c(=O)n1-c1ccccc1F,6.94
13,CCCn1c(=O)c(C(=O)Nc2ccccc2C)c(O)c2ccccc21,18.9
14,CC(=O)c1cccc(NS(=O)(=O)c2cc3c(cc2C)NC(=O)CO3)c1,-33.9
15,N#Cc1c(/N=C/C2C(=O)NC(=S)NC2=O)sc2c1CCCC2,18.6
16,COc1ccc(S(=O)(=O)N(C)CC(=O)NCc2ccco2)cc1,-3.5
17,O=C(CCCn1cnc([N+](=O)[O-])n1)Nc1cccc(Cl)c1Cl,-5.98
18,CN1CCN(NC(=S)Nc2ccccc2)CC1,10.3
19,C=CCN(C(=O)c1cccc(N2C(=O)C3CC=CC(C)C3C2=O)c1)c1ccccc1 (centres unmarked),-0.677
20,CCCCOC(=O)c1ccccc1C(=O)OCCCC,5.68
21,O=C(NCc1ccco1)C1Cc2cc(Cl)ccc2O1 (centres unmarked),-5.25
22,Cc1ccc2nc(-c3ccco3)c(Nc3ccccc3)n2c1,3.48
23,COc1ccc(/C=C/C(=O)Nc2ccc(C)cc2)cc1S(=O)(=O)N1CCOCC1,-32.6

row,Structure (SMILES),"hERG current change (%, negative = inhibition) at 10uM [%]"
1,CC(C)NC(=O)C(=O)Nc1cc2c3c(c1)C(C)C(=O)N3CCC2 (centres unmarked),15.2
2,Cc1ccccc1CSCCNC(=O)COc1ccc(Cl)cc1,-9.54
3,O=C(O)/C=C/C(=O)Nc1cccc2cccnc12,26.7
4,Cc1ccccc1N1CCN(C2CCCN(C(=O)c3ccc(Cl)s3)C2)CC1 (centres unmarked),-46.8
5,CC(=O)Nc1ccc(S(=O)(=O)C(C#N)c2nc3ccccc3nc2NCCO)cc1 (centres unmarked),15.3
6,CCCSc1nnc(N2C(=O)C(O)=C(C(=O)c3ccco3)C2c2ccccc2F)s1 (centres unmarked),8.86
7,COc1ccc(CC(=O)NCCCc2ccccc2)cc1OC,16.5
8,O=C(CCn1nc(-c2ccc(Cl)cc2)c2ccccc2c1=O)Nc1cccnc1,-40.8
9,Cc1cc2cc(CNC(=O)c3cccc([N+](=O)[O-])c3)ccc2[nH]1,-25.3
10,Clc1ccc(C2=Nn3c(nnc3-c3n[nH]c4c3CCC4)SC2)cc1,-3.84
11,COc1ccc(N2CCN(C(=O)CC(NC(N)=O)c3cccc(Oc4ccccc4)c3)CC2)cc1 (centres unmarked),-7.97
12,C=CCn1c(=N)c(C#N)cc2c(=O)n3ccccc3nc21,-35.3
13,Cn1nc(C(F)(F)F)c2cc(C(=O)Nc3ccc(F)c(Cl)c3)sc21,10.8
14,CC1=NN(c2ccccc2)C(=O)/C1=C\C=C1\N(C)c2ccccc2C1(C)C,-13.4
15,COc1ccc(-c2cc(C(=O)N3CCCC3)no2)cc1,3.83
16,Cc1nc2c(ccc3nc(NC(=O)Cc4ccccc4)sc32)s1,3.76
17,CCNS(=O)(=O)c1ccc(CCC(N)=O)cc1,23.5
18,CCN(CC)C(=O)CCSc1nnc(-c2ccco2)o1,10.9
19,CC1CCCC(NC(=O)CSc2nnnn2C)C1C (centres unmarked),2.1
20,O=C(C1CCN(C2CC(=O)N(c3ccc(Cl)cc3)C2=O)CC1)N1CCOCC1 (centres unmarked),-0.546
21,NC(=O)C1CCN(CC(=O)NC(=O)NC2CCCC2)CC1,9.34
22,NC(=O)NCC(=O)N1CCC(C(O)(c2ccccc2)c2ccccc2)CC1,-2.68
23,Cc1cccc(OCC(=O)N(Cc2ccc(C)o2)C2CCS(=O)(=O)C2)c1 (centres unmarked),-42.6

row,Structure (SMILES),"hERG current change (%, negative = inhibition) at 10uM [%]"
1,COC(=O)CN1C(=O)C(O)(CC(=O)c2ccccc2)c2ccccc21 (centres unmarked),16.7
2,CC(=O)Nc1c(O)nc(SCC(=O)N2CCN(c3ccc(F)cc3)CC2)[nH]c1=O,-4.9
3,CCCCOC(=O)CSC1=C(C#N)C(c2ccc3c(c2)OCO3)CC(=O)N1 (centres unmarked),-1.9
4,O=C(CSCc1ccc(C(=O)O)cc1)Nc1ccc2ccccc2c1,13.5
5,CC(C)CNc1cc(Cl)c(S(=O)(=O)NCC(C)C)cc1C(=O)O,6.44
6,CCCc1cc(NCCCCO)n2c(nc3ccccc32)c1C#N,-53.1
7,O=C(NNS(=O)(=O)c1ccccc1[N+](=O)[O-])c1ccc(O)cc1,-8.85
8,CC(C)CC1=NN(C(=O)c2ccncc2)C(O)(C(F)(F)F)C1 (centres unmarked),1.21
9,O=C(CSc1ccc2nnc(-c3ccccc3)n2n1)N1CCCCC1,-59.7
10,CCCCC(CCC(=O)Nc1ccc(C(=O)OCC)cc1)C(=O)O (centres unmarked),5.23
11,CCn1c(=O)cc(OCC(=O)Nc2nc(C)cs2)c2ccccc21,5.99
12,COc1ccc(CN2CCN(c3ccccn3)CC2)c(OC)c1C.O=C([O-])C(=O)[O-],-55.8
13,COc1ccc(/C=C2\SC(=O)N(CCNC(=O)C3CCN(S(=O)(=O)c4cccs4)CC3)C2=O)cc1,0.693
14,Cc1ccc(C)c(OCCn2nnc3ccccc32)c1,14.2
15,CCOc1ccc2nc3sc(C(=O)N4CCN(C)CC4)c(N)c3cc2c1,3.74
16,CCOc1ccc(N(C(C)C(=O)Nc2cccnc2)S(C)(=O)=O)cc1 (centres unmarked),2.99
17,CCN(CC)S(=O)(=O)c1ccc2oc(Nc3ccc(OC)cc3)nc2c1,15.2
18,COc1c(Br)cc([N+](=O)[O-])c(OC)c1C(=O)NC(=O)Nc1c(Cl)cccc1Cl,17.3
19,O=C(N/C(=C/c1ccccc1Cl)C(=O)N1CCCC1)c1ccccc1,-5.15
20,CC(C)C[C@H](NC(=O)[C@@H]1Cc2ccccc2CN1C(=O)OC(C)(C)C)C(=O)NCC1CCC(C(=O)O)CC1 (some centres unmarked),8.49
